Sequences and labels used below:
B1: LINE1-mini (parent)
chain: GGCAGAGCUCAACACAGCGUGGCAAAGUGGCUGUGGCUAGACUGCC

The source of these data is the RNAGym collection of RNA variant scans (doi:10.7554/elife.90254).

Read counts are not given, so values of variants with three or more changes are uncertain.

This data set covers variants of B1. The data set is described as follows: self-cleavage, relative activity (ratio to wild type); higher = more cleavage; in vitro, sequencing; the parent is a self-cleaving ribozyme.
Regarding G1A C10U G19U, the self-cleavage came to 0.27.

Regarding G2A U9C U20A, the self-cleavage came to 0.04.

For C10U A14C G33A, the self-cleavage was 0.04.

Consider U28G U38C A39G, for which the self-cleavage turned out to be 0.07.

In the case of G1U A4C A12C C13A A16U C18G U43A G44U, the self-cleavage was 0.01.

For the variant G7U G22U G44A, the self-cleavage came to 0.03.

As to C10A G22U C23A G29U, the self-cleavage was found to be 0.03.

On to C10G A26G G29C U38C, for which the self-cleavage came out at 0.01.

On to G19C C31U U32G, for which the self-cleavage came out at 0.17.

Turning to C10A G17U G27U G36U U43C, the self-cleavage came to 0.01.

With G1A G5U U32G C42A, the self-cleavage was 0.07.

In the case of A4C A14U A16G G27U, the self-cleavage stood at 0.02.

Take A4U C8U G33C: the self-cleavage came to 0.16.

Consider C3G U38A G40C U43A, for which the self-cleavage came to 0.11.

A4G U34C U38C: the self-cleavage is 0.02.

In the case of A12G G29U C37A, the self-cleavage was determined as 0.03.

Take C3A A6U C10G C23A A26U U34C G36C: the self-cleavage was found to be 0.01.

Regarding C10G C23A G36U C42A G44C, the self-cleavage came to 0.

Regarding U9A C18U G22U, the self-cleavage was 0.07.

Consider C15U A26U A41G, for which the self-cleavage was 0.05.

In the case of A6G C23A A41G C45A, the self-cleavage came to 0.07.

For G1A G27U G35C, the self-cleavage amounted to 0.07.

For the variant C13A U28C G44C C45G, the self-cleavage was determined as 0.05.

In the case of U20A C37A G44C, the self-cleavage is 0.02.

As for A14C G21U C37A, the self-cleavage amounted to 0.06.

In the case of A11U C18U U20G, the self-cleavage came to 0.04.

On to U20G A26C G40U, for which the self-cleavage turned out to be 0.23.

Turning to C8U U20G A25C C46A, the self-cleavage was 0.17.

For the variant A4C A16G C23U G29A U32C C42G, the self-cleavage amounted to 0.

In the case of C3U U9A A12C A39C, the self-cleavage was determined as 0.04.

For the variant G5A C23U C46G, the self-cleavage is 0.06.

For A4C G5C G7C A25G A26U, the self-cleavage was 0.1.

On to G5U C15A U38A U43G G44A, for which the self-cleavage stood at 0.01.

Take C13U C42U C46G: the self-cleavage turned out to be 0.06.

As to G2A C8G G19U, the self-cleavage turned out to be 0.06.

C15U G19C G35A G40U C46U: the self-cleavage is 0.09.

Regarding A12U C13G U20G A24U G27A C45A, the self-cleavage worked out at 0.02.

As to G1U G17C G30A C42U G44A, the self-cleavage is 0.03.

As to C8G G17A G19A G21A G29U C42A, the self-cleavage worked out at 0.02.

For G7U A24G C42G, the self-cleavage came to 0.03.

In the case of C3A A12G A16U A39U C46A, the self-cleavage worked out at 0.02.

As to A6C G22A A41G, the self-cleavage worked out at 0.52.

With C3G G7U A26U, the self-cleavage turned out to be 0.02.

For the variant A11U A12G C23A, the self-cleavage amounted to 0.03.

On to A4U A12G G19A G35U C42A, for which the self-cleavage is 0.02.

Regarding C10A G19A A26C G33A, the self-cleavage was 0.01.

On to A4G G7A G30A C31U G40C, for which the self-cleavage is 0.24.

As for A12U G19U U28C G30U, the self-cleavage stood at 0.31.

As to C10G G22A G44U, the self-cleavage is 0.05.

For G5U C8U A14G A16G G19C C23U, the self-cleavage was found to be 0.07.

On to G1C C10A A16U G29C, for which the self-cleavage is 0.01.

As for G17A A26G U28C, the self-cleavage came out at 0.74.

As for C15U G21U G36A, the self-cleavage amounted to 0.12.

In the case of G17U A39C G40U, the self-cleavage stood at 0.15.

Turning to A16U G22C G30C G35U, the self-cleavage was found to be 0.01.

Consider A16C C37G U38A C45U, for which the self-cleavage turned out to be 0.03.

Consider G5C G19C G22C, for which the self-cleavage amounted to 0.03.

As for C13U G22A C42G C46U, the self-cleavage is 0.04.

As to G7C A16C U32A, the self-cleavage was 0.04.

In the case of A11G G29A G40C, the self-cleavage came out at 0.01.

Take G2C G7U A26G U28C: the self-cleavage was determined as 0.1.

C10A A14G G21C A41U G44A: the self-cleavage was 0.01.

Consider C31G C37G G44C C46A, for which the self-cleavage worked out at 0.02.

Turning to C3A C23U A24C, the self-cleavage is 0.45.

Turning to A6G U9C C18A G29C U34A, the self-cleavage came to 0.01.

As for C3G A11U C23U G30A C31A A41U C42U G44C, the self-cleavage turned out to be 0.

On to A6G G29U C45A, for which the self-cleavage was found to be 0.08.

A16C C18A C42G: the self-cleavage worked out at 0.01.

For G17U U28G G36A G40C C45U, the self-cleavage worked out at 0.01.

Take C3G C23A U28A: the self-cleavage came to 0.08.

On to C8A C18U A39U, for which the self-cleavage was 0.05.

Take C23G C45A C46U: the self-cleavage was 0.41.

With U28C C31U C45A, the self-cleavage is 0.35.

For the variant A26C U34C G36A, the self-cleavage was determined as 0.18.

With U9C C10U A26U G36A C37A, the self-cleavage worked out at 0.02.

In the case of A11U C15U G19A, the self-cleavage was 0.03.

Regarding G1A U34A C37A G40U, the self-cleavage is 0.03.

As to A16C G27C G44A, the self-cleavage was 0.1.

For the variant U9A C18A A24G G36C G40U, the self-cleavage was 0.01.

Regarding G7C A16G G21C, the self-cleavage worked out at 0.06.

Take G19A A24U G27A G30A: the self-cleavage stood at 0.31.

On to G2A A16G G17A G30A, for which the self-cleavage was 0.14.

For the variant G7C C8G C10A A16U A25U G27C, the self-cleavage stood at 0.02.

For the variant G33U A41C C45A, the self-cleavage is 0.01.

Turning to A12U A24G C46A, the self-cleavage was determined as 0.1.

For the variant G2U C13U G17A C18A, the self-cleavage is 0.02.

With G1A C13G A39C, the self-cleavage is 0.06.

In the case of G27U G36C C37G, the self-cleavage stood at 0.29.

With G7C G17U A25C G27U G35A G44C, the self-cleavage was 0.12.

In the case of G17U C31A U43C, the self-cleavage turned out to be 0.2.

Consider C3A U20C A25U C46A, for which the self-cleavage is 0.04.

As to G1A G7U G17C C23G G35U A41C, the self-cleavage came to 0.09.

Turning to G2A A16C C18U G27U G40C, the self-cleavage came to 0.12.

Turning to A11C A12G U28C U43C, the self-cleavage is 0.

C8U C13G G21U A26U G29A: the self-cleavage worked out at 0.02.

Take G36A A41C U43G: the self-cleavage amounted to 0.02.

Turning to U20G G44A C46G, the self-cleavage was 0.04.

Regarding G2C C8U A11G G29U A41C, the self-cleavage came to 0.01.

Take G17U G21U A39G: the self-cleavage stood at 0.08.

As for G7C C10A A25C, the self-cleavage came to 0.

Take G7U G21C C46U: the self-cleavage came to 0.23.

Consider G2C A4G A16C, for which the self-cleavage was 0.02.

Consider C8G U28G G30C G35U, for which the self-cleavage turned out to be 0.01.

On to C42U C45A C46A, for which the self-cleavage came out at 0.05.

Take C13U A16G G19A: the self-cleavage stood at 0.

For the variant G2U A26C G44U, the self-cleavage came out at 0.02.

Take C8G G17A A25U G27U: the self-cleavage was found to be 0.01.

For G7U C8G C10A A24U G40U, the self-cleavage is 0.01.

As for C8G A16G C18G C23U A26C U34A, the self-cleavage came out at 0.02.

Take G7C C10U G27C A41U: the self-cleavage was found to be 0.01.

With G2U G22A G33U, the self-cleavage came to 0.04.

On to C10A A16U U38G, for which the self-cleavage turned out to be 0.01.

Take A25C C31U A41U: the self-cleavage was 0.11.

A4C C15U G21A U34C G36U A39U: the self-cleavage was determined as 0.13.

Turning to G1U G5C G19C U20C U43G, the self-cleavage was 0.

Regarding G2A C3U C15U G19C A24C C45G, the self-cleavage is 0.38.

Take C8A G19U G22C C37G: the self-cleavage is 0.01.

Turning to C18A G22A A25U, the self-cleavage worked out at 0.31.

As to G19C G27U U28C U34A, the self-cleavage amounted to 0.18.

Regarding G7A G29U C31A G33C U43C G44A C46U, the self-cleavage is 0.05.

Turning to A12C U32A G35U, the self-cleavage was 0.02.

Take A4U A25G U43C: the self-cleavage amounted to 0.05.

Turning to C3U G29A A41C, the self-cleavage stood at 0.08.

With G1U A14G C18A G27A, the self-cleavage is 0.

For G1A G5C C10A A14C C37G, the self-cleavage was found to be 0.04.

As for C31U G44A C45A, the self-cleavage was determined as 0.02.

With C23A A24G A25U G30A G44C, the self-cleavage amounted to 0.24.

Consider A6U A11U C13A U28A, for which the self-cleavage was determined as 0.01.

Regarding A12C A25U U28C G30A A39C, the self-cleavage worked out at 0.02.

On to C3A C15A G19U G27A G44A, for which the self-cleavage is 0.22.

With C10A A24G C46U, the self-cleavage turned out to be 0.05.

For the variant G5U G40C C42A, the self-cleavage amounted to 0.03.

For G2C G21U A41G, the self-cleavage came to 0.24.

Take A11G C15A C31A G36A A41G: the self-cleavage is 0.01.

As to C18A G19U A24C G30C U34C U38C, the self-cleavage turned out to be 0.1.

For the variant A6U C13A A14G, the self-cleavage was determined as 0.22.

Consider G2C C8A A12C G33U, for which the self-cleavage stood at 0.03.

Turning to A4C G5C A11U G29U, the self-cleavage was found to be 0.02.

G21U A26G C31A: the self-cleavage turned out to be 0.16.

For A26U G33A G36U, the self-cleavage came out at 0.04.

Regarding C15U A16C C42U C45G, the self-cleavage is 0.03.

In the case of G5A C18A U38C U43A, the self-cleavage was found to be 0.03.

As to G2U G5A C18A C31A A41U, the self-cleavage came to 0.02.

As to A6U U9C C15A G40C, the self-cleavage came to 0.04.

As to G1A G17U A25G, the self-cleavage is 0.01.

Turning to A4U A25U U32G U34C, the self-cleavage amounted to 0.04.

Consider G2C C3U A4C A12U, for which the self-cleavage came to 0.14.

G2A G19A A24C C37U: the self-cleavage was 0.27.

G30U U32C C37U A41U: the self-cleavage is 0.07.

C8U C15U G17C C23U A25C: the self-cleavage was determined as 0.17.

A16C G30A U32C: the self-cleavage amounted to 0.05.

As to G1A G5A G36U U43C, the self-cleavage amounted to 0.09.

As for U20G G27A C45G, the self-cleavage is 0.04.

Regarding C13U C18A C31A, the self-cleavage is 0.02.

With C10U C23U U28C, the self-cleavage came out at 0.4.

For C18G G30A G33C U34C G40A A41G, the self-cleavage stood at 0.01.

On to G2C A12C G40C, for which the self-cleavage is 0.01.

As for A4G G30U A41C, the self-cleavage is 0.12.

Regarding A14C C37G G40U, the self-cleavage turned out to be 0.38.

Take A12U G30C C31U: the self-cleavage was determined as 0.48.

In the case of G2C G27C A39C, the self-cleavage is 0.01.

For the variant G1A A6C C15A C23U, the self-cleavage came out at 0.08.

For the variant A14U G17A A24U A26C, the self-cleavage turned out to be 0.45.

On to G19U U20G G27U, for which the self-cleavage was 1.55.

As to G7C C10A C46U, the self-cleavage came to 0.01.

As for G5A C13G C37A, the self-cleavage was determined as 0.08.

Take A4C C8G U9C A41G: the self-cleavage was 0.02.
